The list shows a part of the results. Binding of human transcription factors and regulators to the viral nucleoprotein by AlphaScreen, crude cell-free proteins, amounts not normalised, one pass. Fold of the Venus control; higher = more signal. No active / inactive call. Single-pass screen; sequences are the whole Swiss-Prot entries looked up by name.

First the molecules themselves.
B1: ZFP36L1, Q07352 (protein)
chain: MTTTLVSATIFDLSEVLCKGNKMLNYSAPSAGGCLLDRKAVGTPAGGGFPRRHSVTLPSSKFHQNQLLSSLKGEPAPALSSRDSRFRDRSFSEGGERLLPTQKQPGGGQVNSSRYKTELCRPFEENGACKYGDKCQFAHGIHELRSLTRHPKYKTELCRTFHTIGFCPYGPRCHFIHNAEERRALAGARDLSADRPRLQHSFSFAGFPSAAATAAATGLLDSPTSITPPPILSADDLLGSPTLPDGTNNPFAFSSQELASLFAPSMGLPGGGSPTTFLFRPMSESPHMFDSPPSPQDSLSDQEGYLSSSSSSHSGSDSPTLDNSRRLPIFSRLSISDD
B2: TRIM27, P14373 (protein)
chain: MASGSVAECLQQETTCPVCLQYFAEPMMLDCGHNICCACLARCWGTAETNVSCPQCRETFPQRHMRPNRHLANVTQLVKQLRTERPSGPGGEMGVCEKHREPLKLYCEEDQMPICVVCDRSREHRGHSVLPLEEAVEGFKEQIQNQLDHLKRVKDLKKRRRAQGEQARAELLSLTQMEREKIVWEFEQLYHSLKEHEYRLLARLEELDLAIYNSINGAITQFSCNISHLSSLIAQLEEKQQQPTRELLQDIGDTLSRAERIRIPEPWITPPDLQEKIHIFAQKCLFLTESLKQFTEKMQSDMEKIQELREAQLYSVDVTLDPDTAYPSLILSDNLRQVRYSYLQQDLPDNPERFNLFPCVLGSPCFIAGRHYWEVEVGDKAKWTIGVCEDSVCRKGGVTSAPQNGFWAVSLWYGKEYWALTSPMTALPLRTPLQRVGIFLDYDAGEVSFYNVTERCHTFTFSHATFCGPVRPYFSLSYSGGKSAAPLIICPMSGIDGFSGHVGNHGHSMETSP
B3: NKX6-1, P78426 (protein)
chain: MLAVGAMEGTRQSAFLLSSPPLAALHSMAEMKTPLYPAAYPPLPAGPPSSSSSSSSSSSPSPPLGTHNPGGLKPPATGGLSSLGSPPQQLSAATPHGINDILSRPSMPVASGAALPSASPSGSSSSSSSSASASSASAAAAAAAAAAAAASSPAGLLAGLPRFSSLSPPPPPPGLYFSPSAAAVAAVGRYPKPLAELPGRTPIFWPGVMQSPPWRDARLACTPHQGSILLDKDGKRKHTRPTFSGQQIFALEKTFEQTKYLAGPERARLAYSLGMTESQVKVWFQNRRTKWRKKHAAEMATAKKKQDSETERLKGASENEEEDDDYNKPLDPNSDDEKITQLLKKHKSSSGGGGGLLLHASEPESSS
B4: AIRE, O43918 (protein)
chain: MATDAALRRLLRLHRTEIAVAVDSAFPLLHALADHDVVPEDKFQETLHLKEKEGCPQAFHALLSWLLTQDSTAILDFWRVLFKDYNLERYGRLQPILDSFPKDVDLSQPRKGRKPPAVPKALVPPPRLPTKRKASEEARAAAPAALTPRGTASPGSQLKAKPPKKPESSAEQQRLPLGNGIQTMSASVQRAVAMSSGDVPGARGAVEGILIQQVFESGGSKKCIQVGGEFYTPSKFEDSGSGKNKARSSSGPKPLVRAKGAQGAAPGGGEARLGQQGSVPAPLALPSDPQLHQKNEDECAVCRDGGELICCDGCPRAFHLACLSPPLREIPSGTWRCSSCLQATVQEVQPRAEEPRPQEPPVETPLPPGLRSAGEEVRGPPGEPLAGMDTTLVYKHLPAPPSAAPLPGLDSSALHPLLCVGPEGQQNLAPGARCGVCGDGTDVLRCTHCAAAFHWRCHFPAGTSRPGTGLRCRSCSGDVTPAPVEGVLAPSPARLAPGPAKDDTASHEPALHRDDLESLLSEHTFDGILQWAIQSMARPAAPFPS
B5: GLIS3, Q8NEA6 (protein)
chain: MMVQRLGLISPPASQVSTACNQISPSLQRAMNAANLNIPPSDTRSLISRESLASTTLSLTESQSASSMKQEWSQGYRALPSLSNHGSQNGLDLGDLLSLPPGTSMSSNSVSNSLPSYLFGTESSHSPYPSPRHSSTRSHSARSKKRALSLSPLSDGIGIDFNTIIRTSPTSLVAYINGSRASPANLSPQPEVYGHFLGVRGSCIPQPRPVPGSQKGVLVAPGGLALPAYGEDGALEHERMQQLEHGGLQPGLVNHMVVQHGLPGPDSQSAGLFKTERLEEFPGSTVDLPPAPPLPPLPPPPGPPPPYHAHAHLHHPELGPHAQQLALPQATLDDDGEMDGIGGKHCCRWIDCSALYDQQEELVRHIEKVHIDQRKGEDFTCFWAGCPRRYKPFNARYKLLIHMRVHSGEKPNKCTFEGCEKAFSRLENLKIHLRSHTGEKPYLCQHPGCQKAFSNSSDRAKHQRTHLDTKPYACQIPGCTKRYTDPSSLRKHVKAHSSKEQQARKKLRSSTELHPDLLTDCLTVQSLQPATSPRDAAAEGTVGRSPGPGPDLYSAPIFSSNYSSRSGTAAGAVPPPHPVSHPSPGHNVQGSPHNPSSQLPPLTAVDAGAERFAPSAPSPHHISPRRVPAPSSILQRTQPPYTQQPSGSHLKSYQPETNSSFQPNGIHVHGFYGQLQKFCPPHYPDSQRIVPPVSSCSVVPSFEDCLVPTSMGQASFDVFHRAFSTHSGITVYDLPSSSSSLFGESLRSGAEDATFLQISTVDRCPSQLSSVYTEG
B6: EPHA5, P54756 (protein)
chain: MRGSGPRGAGRRRPPSGGGDTPITPASLAGCYSAPRRAPLWTCLLLCAALRTLLASPSNEVNLLDSRTVMGDLGWIAFPKNGWEEIGEVDENYAPIHTYQVCKVMEQNQNNWLLTSWISNEGASRIFIELKFTLRDCNSLPGGLGTCKETFNMYYFESDDQNGRNIKENQYIKIDTIAADESFTELDLGDRVMKLNTEVRDVGPLSKKGFYLAFQDVGACIALVSVRVYYKKCPSVVRHLAVFPDTITGADSSQLLEVSGSCVNHSVTDEPPKMHCSAEGEWLVPIGKCMCKAGYEEKNGTCQVCRPGFFKASPHIQSCGKCPPHSYTHEEASTSCVCEKDYFRRESDPPTMACTRPPSAPRNAISNVNETSVFLEWIPPADTGGRKDVSYYIACKKCNSHAGVCEECGGHVRYLPRQSGLKNTSVMMVDLLAHTNYTFEIEAVNGVSDLSPGARQYVSVNVTTNQAAPSPVTNVKKGKIAKNSISLSWQEPDRPNGIILEYEIKYFEKDQETSYTIIKSKETTITAEGLKPASVYVFQIRARTAAGYGVFSRRFEFETTPVFAASSDQSQIPVIAVSVTVGVILLAVVIGVLLSGSCCECGCGRASSLCAVAHPSLIWRCGYSKAKQDPEEEKMHFHNGHIKLPGVRTYIDPHTYEDPNQAVHEFAKEIEASCITIERVIGAGEFGEVCSGRLKLPGKRELPVAIKTLKVGYTEKQRRDFLGEASIMGQFDHPNIIHLEGVVTKSKPVMIVTEYMENGSLDTFLKKNDGQFTVIQLVGMLRGISAGMKYLSDMGYVHRDLAARNILINSNLVCKVSDFGLSRVLEDDPEAAYTTRGGKIPIRWTAPEAIAFRKFTSASDVWSYGIVMWEVVSYGERPYWEMTNQDVIKAVEEGYRLPSPMDCPAALYQLMLDCWQKERNSRPKFDEIVNMLDKLIRNPSSLKTLVNASCRVSNLLAEHSPLGSGAYRSVGEWLEAIKMGRYTEIFMENGYSSMDAVAQVTLEDLRRLGVTLVGHQKKIMNSLQEMKVQLVNGMVPL
B7: ZHX1, Q9UKY1 (protein)
chain: MASRRKSTTPCMVLASEQDPDLELISDLDEGPPVLTPVENTRAESISSDEEVHESVDSDNQQNKKVEGGYECKYCTFQTPDLNMFTFHVDSEHPNVVLNSSYVCVECNFLTKRYDALSEHNLKYHPGEENFKLTMVKRNNQTIFEQTINDLTFDGSFVKEENAEQAESTEVSSSGISISKTPIMKMMKNKVENKRIAVHHNSVEDVPEEKENEIKPDREEIVENPSSSASESNTSTSIVNRIHPSTASTVVTPAAVLPGLAQVITAVSAQQNSNLIPKVLIPVNSIPTYNAALDNNPLLLNTYNKFPYPTMSEITVLSAQAKYTEEQIKIWFSAQRLKHGVSWTPEEVEEARRKQFNGTVHTVPQTITVIPTHISTGSNGLPSILQTCQIVGQPGLVLTQVAGTNTLPVTAPIALTVAGVPSQNNIQKSQVPAAQPTAETKPATAAVPTSQSVKHETALVNPDSFGIRAKKTKEQLAELKVSYLKNQFPHDSEIIRLMKITGLTKGEIKKWFSDTRYNQRNSKSNQCLHLNNDSSTTIIIDSSDETTESPTVGTAQPKQSWNPFPDFTPQKFKEKTAEQLRVLQASFLNSSVLTDEELNRLRAQTKLTRREIDAWFTEKKKSKALKEEKMEIDESNAGSSKEEAGETSPADESGAPKSGSTGKICKKTPEQLHMLKSAFVRTQWPSPEEYDKLAKESGLARTDIVSWFGDTRYAWKNGNLKWYYYYQSANSSSMNGLSSLRKRGRGRPKGRGRGRPRGRPRGSKRINNWDRGPSLIKFKTGTAILKDYYLKHKFLNEQDLDELVNKSHMGYEQVREWFAERQRRSELGIELFEENEEEDEVIDDQEEDEEETDDSDTWEPPRHVKRKLSKSDD
B8: DAB2IP, Q5VWQ8 (protein)
chain: MSAGGSARKSTGRSSYYYRLLRRPRLQRQRSRSRSRTRPARESPQERPGSRRSLPGSLSEKSPSMEPSAATPFRVTGFLSRRLKGSIKRTKSQPKLDRNHSFRHILPGFRSAAAAAADNERSHLMPRLKESRSHESLLSPSSAVEALDLSMEEEVVIKPVHSSILGQDYCFEVTTSSGSKCFSCRSAAERDKWMENLRRAVHPNKDNSRRVEHILKLWVIEAKDLPAKKKYLCELCLDDVLYARTTGKLKTDNVFWGEHFEFHNLPPLRTVTVHLYRETDKKKKKERNSYLGLVSLPAASVAGRQFVEKWYPVVTPNPKGGKGPGPMIRIKARYQTITILPMEMYKEFAEHITNHYLGLCAALEPILSAKTKEEMASALVHILQSTGKVKDFLTDLMMSEVDRCGDNEHLIFRENTLATKAIEEYLKLVGQKYLQDALGEFIKALYESDENCEVDPSKCSAADLPEHQGNLKMCCELAFCKIINSYCVFPRELKEVFASWRQECSSRGRPDISERLISASLFLRFLCPAIMSPSLFNLLQEYPDDRTARTLTLIAKVTQNLANFAKFGSKEEYMSFMNQFLEHEWTNMQRFLLEISNPETLSNTAGFEGYIDLGRELSSLHSLLWEAVSQLEQSIVSKLGPLPRILRDVHTALSTPGSGQLPGTNDLASTPGSGSSSISAGLQKMVIENDLSGLIDFTRLPSPTPENKDLFFVTRSSGVQPSPARSSSYSEANEPDLQMANGGKSLSMVDLQDARTLDGEAGSPAGPDVLPTDGQAAAAQLVAGWPARATPVNLAGLATVRRAGQTPTTPGTSEGAPGRPQLLAPLSFQNPVYQMAAGLPLSPRGLGDSGSEGHSSLSSHSNSEELAAAAKLGSFSTAAEELARRPGELARRQMSLTEKGGQPTVPRQNSAGPQRRIDQPPPPPPPPPPAPRGRTPPNLLSTLQYPRPSSGTLASASPDWVGPSTRLRQQSSSSKGDSPELKPRAVHKQGPSPVSPNALDRTAAWLLTMNAQLLEDEGLGPDPPHRDRLRSKDELSQAEKDLAVLQDKLRISTKKLEEYETLFKCQEETTQKLVLEYQARLEEGEERLRRQQEDKDIQMKGIISRLMSVEEELKKDHAEMQAAVDSKQKIIDAQEKRIASLDAANARLMSALTQLKERYSMQARNGISPTNPTKLQITENGEFRNSSNC

In this test the target is nucleoprotein N of Crimean-Congo hemorrhagic fever virus. Nature of the test: AlphaScreen luminescence signal relative to Venus negative control (fold); higher = stronger binding to CCHFV N. The procedure:
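AlphaScreen binding of cell-free made, FLAG-GST-tagged human transcription factors and regulators (crude translation products) to biotinylated N protein; signal as fold of the FLAG-GST-Venus control. One pass.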
(In Alpha technology, singlet oxygen from a donor bead excites a nearby acceptor bead.)
B1 registered an AlphaScreen luminescence signal of 41.3.
The result for B2 reads 2.47.
B3 displayed an AlphaScreen luminescence signal of 3.44.
The result for B4 reads 1.86; that for B5, 2.56.
With B6 the figure was 3.02; with B7, 6.09; with B8, 2.14.
